± gives the standard error. Variants at the background level are over-represented here.
B1: glmS ribozyme (parent)
chain: AUAAAAGCGCCAGAACUACAGAAAUGUAGUUGACGAGGAGGAGGUUUAUCGAAUUUUCGGCGGAUGCCUCCAAA

Experiments:
Conditions in all cases: with glucosamine-6-phosphate
glucosamine-6-phosphate [1] = variants of: B1; assay: self-cleavage kobs at 640 uM GlcN6P; higher = faster cleavage; RNA array
Method in brief: (§1)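 Weighted Michaelis–Menten fits across concentrations supplied kcat and KM, based on kobs from one- or two-exponential decay fits to normalised per-tile medians. The data came from barcoded ribozyme variants transcribed in situ by E. coli RNA polymerase on sequenced MiSeq chips and tracked at 37 °C by a hybridised Cy3 probe. Glucosamine-6-phosphate (40 μM to 10 mM) in HEPES/KCl/Mg(OAc)2 buffer was flowed in.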

glucosamine-6-phosphate [2] = variants of: B1; assay: self-cleavage kobs at 2500 uM GlcN6P; higher = faster cleavage; RNA array
Method in brief: as §1

glucosamine-6-phosphate [3] = variants of: B1; assay: self-cleavage kobs at 10000 uM GlcN6P; higher = faster cleavage; RNA array
Method in brief: as §1

glucosamine-6-phosphate [4] = variants of: B1; assay: self-cleavage kobs at 160 uM GlcN6P; higher = faster cleavage; RNA array
Method in brief: as §1

Row | Variant | self-cleavage kobs at 640 uM GlcN6P (glucosamine-6-phosphate [1]) | self-cleavage kobs at 2500 uM GlcN6P (glucosamine-6-phosphate [2]) | self-cleavage kobs at 10000 uM GlcN6P (glucosamine-6-phosphate [3]) | self-cleavage kobs at 160 uM GlcN6P (glucosamine-6-phosphate [4])
1 | A14U U65C | 3.59e-05 ± 8.9e-06 s⁻¹ | 9.87e-05 ± 1.3e-05 s⁻¹ | 7.83e-05 ± 7.7e-06 s⁻¹ | –
2 | A15C A33C A53C | < 1e-05 s⁻¹ | – | < 1e-05 s⁻¹ | –
3 | A15C A33U G60A | < 1e-05 s⁻¹ | – | – | –
4 | A15C A36C G41U | < 1e-05 s⁻¹ | – | – | –
5 | A15C A39C C70G | < 1e-05 s⁻¹ | – | – | –
6 | A15C A39U A42C C67G | < 1e-05 s⁻¹ | < 1e-05 s⁻¹ | – | < 1e-05 s⁻¹
7 | A15C A42C G44A U47A | < 1e-05 s⁻¹ | < 1e-05 s⁻¹ | – | –
8 | A15C A48C C68U | < 1e-05 s⁻¹ | < 1e-05 s⁻¹ | – | –
9 | A15C C16A A39C G41U U45C | < 1e-05 s⁻¹ | < 1e-05 s⁻¹ | – | –
10 | A15C C16A G35U | < 1e-05 s⁻¹ | – | – | –
11 | A15C C34A G63C C71U | < 1e-05 s⁻¹ | – | – | –
12 | A15C C34U | < 1e-05 s⁻¹ | < 1e-05 s⁻¹ | < 1e-05 s⁻¹ | < 1e-05 s⁻¹
13 | A15C C70G C71A | 6.35e-05 ± 1.7e-05 s⁻¹ | – | – | 4.75e-05 ± 2e-05 s⁻¹
14 | A15C G32C | 3.08e-05 ± 1e-05 s⁻¹ | 7.51e-05 ± 2e-05 s⁻¹ | 0.000138 ± 1.7e-05 s⁻¹ | –
15 | A15C G35A G41C G60A G62C | < 1e-05 s⁻¹ | < 1e-05 s⁻¹ | – | –
16 | A15C G35A U65G | < 1e-05 s⁻¹ | < 1e-05 s⁻¹ | – | –
17 | A15C G35C C61U | < 1e-05 s⁻¹ | < 1e-05 s⁻¹ | – | –
18 | A15C G38U C71U | < 1e-05 s⁻¹ | < 1e-05 s⁻¹ | – | –
19 | A15C G40A G43A | < 1e-05 s⁻¹ | – | – | –
20 | A15C G40C | 0.000109 ± 9.3e-06 s⁻¹ | 0.000234 ± 2.4e-05 s⁻¹ | 0.000343 ± 3.9e-05 s⁻¹ | 5.62e-05 ± 7.5e-06 s⁻¹
21 | A15C G44C C50U | < 1e-05 s⁻¹ | < 1e-05 s⁻¹ | – | –
22 | A15C G60U | < 1e-05 s⁻¹ | < 1e-05 s⁻¹ | < 1e-05 s⁻¹ | < 1e-05 s⁻¹
23 | A15C U30A C67A | 0.000357 ± 8.3e-05 s⁻¹ | 0.0013 ± 0.0005 s⁻¹ | – | 0.000277 ± 6.8e-05 s⁻¹
24 | A15C U30C U31G U69G | 0.00017 ± 4.8e-05 s⁻¹ | – | – | –
25 | A15C U31G A39U G44C G60A | < 1e-05 s⁻¹ | – | < 1e-05 s⁻¹ | –
26 | A15C U31G G35U U47A C58U C68U | < 1e-05 s⁻¹ | – | – | –
27 | A15C U46A | 0.000102 ± 2.1e-05 s⁻¹ | 0.000152 ± 3.8e-05 s⁻¹ | 0.000416 ± 9.4e-05 s⁻¹ | –
28 | A15C U47A U49C U57G G63U U65A U69A | < 1e-05 s⁻¹ | – | – | –

Row | Variant | self-cleavage kobs at 640 uM GlcN6P (glucosamine-6-phosphate [1]) | self-cleavage kobs at 2500 uM GlcN6P (glucosamine-6-phosphate [2]) | self-cleavage kobs at 10000 uM GlcN6P (glucosamine-6-phosphate [3]) | self-cleavage kobs at 160 uM GlcN6P (glucosamine-6-phosphate [4])
29 | A15G A36C G41C U47G | < 1e-05 s⁻¹ | < 1e-05 s⁻¹ | – | < 1e-05 s⁻¹
30 | A15G A36G C67G | < 1e-05 s⁻¹ | – | – | –
31 | A15G A36U G41U A48U G62A | < 1e-05 s⁻¹ | – | – | –
32 | A15G A36U G41U C70U | < 1e-05 s⁻¹ | < 1e-05 s⁻¹ | – | –
33 | A15G A36U U45G U46G A64G | < 1e-05 s⁻¹ | – | – | –
34 | A15G A39C A53G G62A | < 1e-05 s⁻¹ | – | – | –
35 | A15G A42C C61U | < 1e-05 s⁻¹ | – | – | –
36 | A15G A42U | 6.62e-05 ± 1.7e-05 s⁻¹ | 0.000216 ± 3.8e-05 s⁻¹ | 0.000203 ± 3e-05 s⁻¹ | 2.77e-05 ± 1.4e-05 s⁻¹
37 | A15G A48G | 4.16e-05 ± 1.4e-05 s⁻¹ | – | – | –
38 | A15G C16A G32U G38U | < 1e-05 s⁻¹ | – | – | –
39 | A15G C16U U31G G32A G38U C68A | < 1e-05 s⁻¹ | < 1e-05 s⁻¹ | – | < 1e-05 s⁻¹
40 | A15G C34A G60C | < 1e-05 s⁻¹ | – | – | –
41 | A15G C58A C70U | 8.95e-05 ± 1.1e-05 s⁻¹ | 0.000182 ± 4.8e-05 s⁻¹ | 0.000281 ± 5.3e-05 s⁻¹ | 0.000138 ± 2.8e-05 s⁻¹
42 | A15G C58A U69G | 0.000122 ± 3.7e-05 s⁻¹ | 8.9e-05 ± 2.5e-05 s⁻¹ | – | –
43 | A15G G29U G32A A42C C61G | < 1e-05 s⁻¹ | – | – | < 1e-05 s⁻¹
44 | A15G G29U G41U G51A C70G | < 1e-05 s⁻¹ | < 1e-05 s⁻¹ | – | –
45 | A15G G40U C70A | 0.000328 ± 8e-05 s⁻¹ | 0.000773 ± 0.00016 s⁻¹ | 0.000531 ± 0.00014 s⁻¹ | 4.48e-05 ± 1.3e-05 s⁻¹
46 | A15G G41U G62U | < 1e-05 s⁻¹ | < 1e-05 s⁻¹ | – | < 1e-05 s⁻¹
47 | A15G G44C U49G | < 1e-05 s⁻¹ | – | – | –
48 | A15G G51C | < 1e-05 s⁻¹ | < 1e-05 s⁻¹ | < 1e-05 s⁻¹ | < 1e-05 s⁻¹
49 | A15G G51C G59A | < 1e-05 s⁻¹ | < 1e-05 s⁻¹ | – | < 1e-05 s⁻¹
50 | A15G U30A C67A C70U | 0.000654 ± 0.00016 s⁻¹ | 9.99e-05 ± 4.6e-05 s⁻¹ | 0.00115 ± 0.00026 s⁻¹ | –
51 | A15G U31A U47G | 0.000471 ± 0.00011 s⁻¹ | 0.00142 ± 0.0005 s⁻¹ | – | –
52 | A15G U45C U57C | < 1e-05 s⁻¹ | – | – | –
53 | A15G U47C U49C A52G C68A | < 1e-05 s⁻¹ | – | – | –
54 | A15G U65C C68G | < 1e-05 s⁻¹ | < 1e-05 s⁻¹ | – | –
55 | A15U A33G C61G | < 1e-05 s⁻¹ | < 1e-05 s⁻¹ | < 1e-05 s⁻¹ | –

From the supplement of paper PMC7125110
